Five molecules from patent US11891445 (ABL BIO, dated 2024) can be followed below.

The target of assay [1] is T1, human B7-H3 expressed on a cell surface (human cancer cell lines) (human, UniProt Q5ZPR3 29-534).
T1 construct: whole, on cells; also called cell surface expression B7-H3 antigen
T1 sequence (looked up): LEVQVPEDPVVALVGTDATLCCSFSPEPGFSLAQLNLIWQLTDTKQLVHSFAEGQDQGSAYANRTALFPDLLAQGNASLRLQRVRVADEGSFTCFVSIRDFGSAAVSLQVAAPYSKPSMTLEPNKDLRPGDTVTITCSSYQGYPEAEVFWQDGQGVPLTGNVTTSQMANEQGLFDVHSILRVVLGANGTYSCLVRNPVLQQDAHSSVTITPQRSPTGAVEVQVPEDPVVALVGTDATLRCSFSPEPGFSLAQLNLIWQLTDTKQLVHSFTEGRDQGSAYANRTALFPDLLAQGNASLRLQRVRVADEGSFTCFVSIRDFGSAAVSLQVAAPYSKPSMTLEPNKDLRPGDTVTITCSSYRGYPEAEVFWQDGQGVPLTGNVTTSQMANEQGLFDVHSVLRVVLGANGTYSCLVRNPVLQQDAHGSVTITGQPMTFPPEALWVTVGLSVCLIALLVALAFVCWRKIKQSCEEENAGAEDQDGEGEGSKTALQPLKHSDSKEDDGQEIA
Briefly: flow cytometry, SKOV-3 cells, antibody 10 ug/ml. The text has this: (§1) Using various kinds of cancer cells A2780 (human ovarian cancer, ECACC, 93112519), SKOV-3 (human ovarian adenocarcinoma, ATCC® HTB-77™) OVCAR-3 (human ovarian adenocarcinoma, ATCC® HTB-161™), HCT116 (colon cancer cell, ThermoFIshcer Sci), HT29 (olorectal adenocarcinoma, ATCC® HTB-38™), DLD-1 (colorectal adenocarcinoma cell lines, ATCC® CCL-221™), Calu-6 (Non-small-cell lung carcinoma, ATCC® HTB-56™), HCC1954 (TNM stage IIA, grade 3, ductal carcinoma, ATCC® CRL-2338™), HCC1187 (TNM stage IIA, ATCC® CLC-2322™), renal cancer cell line 786-0 (renal cell adenocarcinoma, ATCC® CRL-1932™), A498 (kidney carcinoma, ATCC® HTB-44™), Panc-1 (pancreas epithelioid carcinoma, TCC CRL-1469™), NCI-N87 (gastric carcinoma, TCC CRL-5822™), HeLa (cervix adenocarcinoma, ATCC® CCL-2™), JeKo-1 (Lymphoma, ATCC® CRL-3006™) and FACSCalibur (BD Biosciences) device, the degree of binding of anti-B7-H3 antibody to B7-H3 was measured as follows.
(§2) After dissociating each cell line and washing it with PBS buffer, the number of cells was counted and adjusted to 2×10^5 cells/200 µl PBS, and then was treated with 10 µg/ml of B7-H3 monoclonal antibodies prepared in Example 2. Reaction was allowed at 4° C. for 1 hr. After washing the reacted cells in PBS, the FITC-labeled constant region (Fc)-specific antibody (Goat anti-human IgG FITC conjugate, Fc specific, Sigma, F9512, concentration: 2.0 mg/ml)) was diluted by 1:500 and added 100 µl per well. and Reaction was allowed at 4° C. for 1 hr. After the reaction, cells were washed in PBS and analyzed using the FACSCalibur device. The negative control group was treated by the FITC-labeled constant region (Fc) specific antibody only. To compare expression degrees of B7-H3 among different cancer cell lines, the value for the peak shift in the experimental groups treated with the B7-H3 monoclonal antibody was divided by the value for the peak shift in the negative control group (MFI Ratio, Mean Fluorescence Intensity Ratio).

For assay [2], the target named is T1, human B7-H3 expressed on a cell surface …. Description: flow cytometry, HCC1954 cells, antibody 10 ug/ml.
Excerpt: as §1, §2
A general note: A flow cytometer gives signals particle by particle.

Assay [3] has the same target. Briefly: flow cytometry, DLD-1 cells, antibody 10 ug/ml.
Excerpt: as §1, §2

Assay [4] has the same target. Briefly: flow cytometry, NCI-N87 cells, antibody 10 ug/ml.
Excerpt: as §1, §2

Assay [5] shares this target. Briefly: flow cytometry, Panc-1 cells, antibody 10 ug/ml.
Excerpt: as §1, §2

The target in assay [6] is T2, B7-H4 (Sino Biological, Cat #: 10738-H08H) (human, UniProt Q7Z7D3 25-259).
T2 construct: extracellular domain; Bought
T2 sequence (looked up): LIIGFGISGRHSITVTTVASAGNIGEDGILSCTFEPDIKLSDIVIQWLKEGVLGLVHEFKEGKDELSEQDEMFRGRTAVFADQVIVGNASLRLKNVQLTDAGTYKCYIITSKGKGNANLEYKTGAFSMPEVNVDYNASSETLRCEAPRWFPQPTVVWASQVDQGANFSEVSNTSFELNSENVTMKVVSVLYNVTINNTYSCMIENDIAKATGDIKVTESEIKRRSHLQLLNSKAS
Description: ELISA on plate-coated recombinant B7 family proteins (1 ug/ml). The method, then: Specifically, after diluting the recombinant human B7 family proteins at a concentration of 1 µg/ml and putting them in a 96-well plate (Nunc-Immuno Plates, NUNC) in 100 µl per well, it was reacted at 4° C. for 16 hrs for coating. The recombinant proteins used in Example 1 was used.
Then, after removing proteins and washing it with PBST, 200 µl of PBS buffer comprising 1% BSA (bovine serum albumin) was put per well and it was reacted at 37° C. for 2 hrs to block non-specific binding. Then, after diluting the anti-B7-H3 antibodies prepared in Example 2 in 10 µg/ml on a 96-well plate, 100 µl was put per well and it was reacted at 37° C. for 1 hr. Then after it was washed with PBST. In order to detect antibodies bound to an antigen, HRP-connected anti-human IgG F(ab')2 antibody (Goat anti-Human IgG F(ab')2 Cross-Adsorbed Secondary Antibody, HRP, Pierce, 31414) was diluted in PBS comprising 1% bovine serum albumin (BSA) by 1:10,000. 100 µl was put per well and it was reacted at 37° C. for about 1 hr. After washing it with PBST again, TMB (Tetramethylbenzidine, Sigma, T0440) 100 µl was put to develop color. After reacting it at RT for 5-10 min, 50 µl of H_2SO_4 was put to finish the reaction, and the absorbance at 450 nm and 650 nm was measured by using a micro plate reader (molecular device).

Assay [7] concerns the target T1, human B7-H3 expressed on a cell surface …. Briefly: flow cytometry, 786-0 cells, antibody 10 ug/ml.
Excerpt: as §1, §2

Assay [8] shares this target. Briefly: flow cytometry, MDA-MB-231 cells, antibody 10 ug/ml.

B1: anti-B7-H3 antibody D8G (full IgG form) (antibody)
heavy: EVQLLESGGGLVQPGGSLRLSCAASGFTFSSYSMSWVRQAPGKGLEWVSGIYSDGSNTYYADSVKGRFTISRDNSKNTLYLQMNSLRAEDTAVYYCAKMLHRFDYWGQGTLVTVSS[human IgG1 constant region not shown]
light: QSVLTQPPSASGTPGQRVTISCSGSSSNIGSNSVTWYQQLPGTAPKLLIYADSQRPSGVPDRFSGSKSGTSASLAISGLRSEDEADYYCGTWDSSLNAYVFGGGTKLTVLGQPKAAPSVTLFPPSSEELQANKATLVCLISDFYPGAVTVAWKADSSPVKAGVETTTPSKQSNNKYAASSYLSLTPEQWKSHRSYSCQVTHEGSTVEKTVAPAECS
With B1, the “MFI Ratio” value turned out to be 23.3 ratio in assay [1]; 25 ratio in assay [2]; 18.5 ratio in assay [3]; 21.5 ratio in assay [4]; 12 ratio in assay [5]; 22 ratio in assay [7]. Moreover, in assay [8], the “MFI Ratio” value came to 8.5 ratio. Also, the binding result in assay [6] is recorded as “no binding”.

B2: anti-B7-H3 antibody C4I (full IgG form) (antibody)
heavy: EVQLLESGGGLVQPGGSLRLSCAASGFTFSGYYMSWVRQAPGKGLEWVSLISPSSGSIYYADSVKGRFTISRDNSKNTLYLQMNSLRAEDTAVYYCAKGLTKFDYWGQGTLVTVSS[human IgG1 constant region not shown]
light: QSVLTQPPSASGTPGQRVTISCTGSSSNIGSNDVSWYQQLPGTAPKLLIYANSHRPSGVPDRFSGSKSGTSASLAISGLRSEDEADYYCGSWDDSLSGYVFGGGTKLTVLGQPKAAPSVTLFPPSSEELQANKATLVCLISDFYPGAVTVAWKADSSPVKAGVETTTPSKQSNNKYAASSYLSLTPEQWKSHRSYSCQVTHEGSTVEKTVAPAECS
notes: also called C41
In the case of B2, the “MFI Ratio” value in assay [1] turned out to be 20.4 ratio; in assay [2], 21 ratio; in assay [3], 14.9 ratio; in assay [4], 17.6 ratio; in assay [5], 12 ratio; in assay [7] it was 24 ratio. The “MFI Ratio” value in assay [8] came to 6.2 ratio. Besides, the binding result in assay [6] is reported as “no binding”.

B3: anti-B7-H3 antibody F6V (full IgG form) (antibody)
heavy: EVQLLESGGGLVQPGGSLRLSCAASGFTFSDYAMSWVRQAPGKGLEWVSGISPGGSNTYYADSVKGRFTISRDNSKNTLYLQMNSLRAEDTAVYYCAKDAWIARLLLFDYWGQGTLVTVSS[human IgG1 constant region not shown]
light: QSVLTQPPSASGTPGQRVTISCSGSSSNIGSNAVTWYQQLPGTAPKLLIYYNNKRPSGVPDRFSGSKSGTSASLAISGLRSEDEADYYCGTWDDSLSGYVFGGGTKLTVLGQPKAAPSVTLFPPSSEELQANKATLVCLISDFYPGAVTVAWKADSSPVKAGVETTTPSKQSNNKYAASSYLSLTPEQWKSHRSYSCQVTHEGSTVEKTVAPAECS
As for B3, the “MFI Ratio” value turned out to be 27.7 ratio in assay [1]; 30 ratio in assay [2]; 25.6 ratio in assay [3]; 33.4 ratio in assay [4]; 19 ratio in assay [5]; 33 ratio in assay [7]. In addition, in assay [8], the “MFI Ratio” value is 11.3 ratio. The binding result in assay [6] is “no binding”.

B4: anti-B7-H3 antibody B5 (full IgG form) (antibody)
heavy: EVQLLESGGGLVQPGGSLRLSCAASGFTFSDYAMSWVRQAPGKGLEWVSSISSGSGSIYYADSVKGRFTISRDNSKNTLYLQMNSLRAEDTAVYYCAKNLIPLDYWGQGTLVTVSS[human IgG1 constant region not shown]
light: QSVLTQPPSASGTPGQRVTISCSGSSSNIGSNAVSWYQQLPGTAPKLLIYYNSHRPSGVPDRFSGSKSGTSASLAISGLRSEDEADYYCGSWDASLNAYVFGGGTKLTVLGQPKAAPSVTLFPPSSEELQANKATLVCLISDFYPGAVTVAWKADSSPVKAGVETTTPSKQSNNKYAASSYLSLTPEQWKSHRSYSCQVTHEGSTVEKTVAPAECS
As to B4, the “MFI Ratio” value in assay [1] was 29.5 ratio; in assay [2], 29 ratio; in assay [3], 24.9 ratio; in assay [4], 27.3 ratio; in assay [5] it was 18 ratio; in assay [7] it was 32 ratio. Besides, the “MFI Ratio” value in assay [8] came to 11.4 ratio. Also, in assay [6], the binding result is “no binding”.

B5: anti-B7-H3 antibody 10F11 (full IgG form) (antibody)
heavy: EVQLLESGGGLVQPGGSLRLSCAASGFTFSSYGMSWVRQAPGKGLEWVSGIYSGGSSKYYADSVKGRFTISRDNSKNTLYLQMNSLRAEDTAVYYCAKNRLRFDYWGQGTLVTVSS[human IgG1 constant region not shown]
light: QSVLTQPPSASGTPGQRVTISCTGSSSNIGSNSVTWYQQLPGTAPKLLIYSDSHRPSGVPDRFSGSKSGTSASLAISGLRSEDEADYYCGTWDASLNAYVFGGGTKLTVLGQPKAAPSVTLFPPSSEELQANKATLVCLISDFYPGAVTVAWKADSSPVKAGVETTTPSKQSNNKYAASSYLSLTPEQWKSHRSYSCQVTHEGSTVEKTVAPAECS
Consider B5, for which the “MFI Ratio” value in assay [1] came to 28.5 ratio; in assay [2], 35 ratio; in assay [3], 24.6 ratio; in assay [4], 31.7 ratio; in assay [5], 18 ratio; in assay [7] it was 34 ratio. For the same molecule, the “MFI Ratio” value in assay [8] was 12.4 ratio. The binding result in assay [6] is “no binding”.
